The values below come from publication PMC10726135.

This is one part of the list. At the low end of the ranking the order means little. The protein was read in a cell extract, so binding may be indirect.

This assay concerns the target T1, HNF4alpha8 (COS-7 nuclear extract) (UniProt P41235-5).
T1 sequence: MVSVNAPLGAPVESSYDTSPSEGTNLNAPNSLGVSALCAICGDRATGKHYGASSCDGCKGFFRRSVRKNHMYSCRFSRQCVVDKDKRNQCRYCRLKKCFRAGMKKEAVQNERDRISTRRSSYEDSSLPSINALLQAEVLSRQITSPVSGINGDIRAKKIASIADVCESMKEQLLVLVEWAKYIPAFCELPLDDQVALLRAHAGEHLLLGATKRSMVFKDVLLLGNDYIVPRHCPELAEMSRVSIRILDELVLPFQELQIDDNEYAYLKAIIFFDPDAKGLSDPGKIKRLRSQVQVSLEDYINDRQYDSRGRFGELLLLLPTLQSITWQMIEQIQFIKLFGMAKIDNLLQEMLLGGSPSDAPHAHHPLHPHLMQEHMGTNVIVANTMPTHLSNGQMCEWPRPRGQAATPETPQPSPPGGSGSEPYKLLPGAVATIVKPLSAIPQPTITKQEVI
Kind of assay: protein-binding microarray. Conditions: COS-7 nuclear extract on double-stranded Agilent 4x180k PBM; binding buffer, salt, pH and temperature not given; high values mean tight binding; double strand, one strand shown; sequences stand for … in …GCCTAGGGAGATTAGAGTATCGGTCGA
With AACACAGGTGACCTTTGCTCCGGTTCCCAA, the binding signal (log2 normalized intensity) was determined as 7.12. Under GAAGACTTCATGATAACACTTCCCAAGCAT stands -1.28; under GCATCTTATCTGAATCTGGAATCACGTTCG, 1.16. GGCAGCCTTCGTTTGCTTTTCCTTATCATC: the binding signal (log2 normalized intensity) was determined as 0.201. For CTTGGCAAGGGGAGGCACTCATGGTGTTTG, the binding signal (log2 normalized intensity) was 0.519. Under GATGTCTCTCATTGGAATGAGCCTCCTGAA stands -0.287. Under GTCCAAAGTCTCAACTAAGTGTTATCTAAA stands 1.45; under GGTCTTCTAGAAACAACACACCTTGCCACC, -1.17. Regarding CTATTGTCCTATGACCCTGCCAAATCCCCC, the binding signal (log2 normalized intensity) turned out to be 4.75. Under AGACAAGATATGAGGCCAGTTTTCCCAAAG stands -1.26. On to GCGGCATTCCTGTCAAAATCTGATCTTTCC, for which the binding signal (log2 normalized intensity) came to 1.47.

On to GAACAATTATTGCCTGGCATCTAACCTTCG, for which the binding signal (log2 normalized intensity) amounted to 1.54. Regarding TAGACAAATTTGTTTACTTCTGTCTCCAGA, the binding signal (log2 normalized intensity) is -0.614. Under AGCATGGAGAAAATTCTGGACCTTCTTATC stands 1.59. The figure for GTAACATTCCTAGATATCAGGAAGGTCAGA is 1.88. Under TTCTCCAGCTGCTGTAAGGTTACTGAGGGC stands 0.705.

In the case of AGTCCAGACAAGTCCCAAGTATTTTCAGCC, the binding signal (log2 normalized intensity) is -1.21. The figure for CAAACGGATATTTGATCAAAGGTCAGCTCT is 5.82; for CATTGACTGAGATAGATAAGGCTGAGTGGA it is -0.956; for TTGGATATCATATCATCTTCCCTGTTCAAA it is 0.648.

With ATGGGACCTTTGCCCTTCTTGTTAACCTCC, the binding signal (log2 normalized intensity) was 4.54. The figure for AAGGGGGCAAAGGGCATGGGCAGCTTTGAA is 5.12; for TGAGGCAAGCAAAAGCCAAGGCATCTGGGG it is -1.24.

For TCTGCTGAGTATCCAAAGGTCAGTGACAAA, the binding signal (log2 normalized intensity) came to 4.99. The figure for GTTTCCTAGTTCAAACAGGCCCTCCTCCTC is 0.828; for GGGGGGTTGTTTTTAAAAGGCTGCCTTTCC it is 0.299; for GATACCATCAGATACCTACTCTGCTCTTCT it is -1.3.

Take TAGAACACTTTCCACTCTCTACTGATATGT: the binding signal (log2 normalized intensity) is 0.175. Under AGCCCTAAAGACCACTGGGCTTTCACAAGG stands -1.24; under CTGACAGGATGAATTTATTGCCCTCAGGGT, 2.65.

Regarding CCGTCACTGCAAGGCAAACACTCAAGGTCC, the binding signal (log2 normalized intensity) was -0.132. With GAGCACAGGGTCAGCAGATCTTTGTTAACA, the binding signal (log2 normalized intensity) was 0.456. As to TCAAAGGTGGAGATAACAAACTTGATTGGG, the binding signal (log2 normalized intensity) was -1.23. The figure for AGTCTGTCTTGCTGTTTTTCCAGTTTTTGT is 1.55; for TGTTGACATCTTGATTTAGCCCAGTGAGAC it is 1.24. Under ATGGAACAAGCCAGGTGTGCAGAGAGCAAA stands -1.38; under TATCAGGGAGATAGTCTGAGAGTCACTGCC, -1.2; under CTCCTTCATCTTCAAAGCCAGCAATGGCAG, -0.00164. As to CAGTTTGGACTTTGATCCTGATGACTGCAG, the binding signal (log2 normalized intensity) came out at 8.17. Under ATTACAACCAAAGGAATTTAGCCTTTAACC stands 2.87.

Take CCTCACTTATCACATTCTGCTCTTGAACCA: the binding signal (log2 normalized intensity) was 1.2. Take ATGCAACACAGGGGGAGGAATGCTGACCTC: the binding signal (log2 normalized intensity) is 3.53. Consider GCGCCTTGCGAGCGTACGCAGGGCGGCCGG, for which the binding signal (log2 normalized intensity) turned out to be 1.25. The figure for CGTGGTTCAGGGAGCGAATAAATACATAAA is -0.814; for GGGTGCTGCCTTTCCTGTGACTTTTGGCCA it is 4.07. Under TGACTCAGTCTTACTTGACAATTACATAGT stands -0.141; under CTCCCACATGCTGTCTAGGCCAGAGTTCAC, 2.83; under CCCTGACTAAATTCTTGTCAATGACCCTAA, 4.19. Under AAATCTGCACTTTACGTAAGATAAGGTGAA stands 0.832; under CAGTTGACATGATACCTTCCTGAATGCCTA, -1.37.

For CAGCATAGAAAACAAGTTAGACAGTGCCTA, the binding signal (log2 normalized intensity) was -1.33. Under AGGAGCCTCTGCAACCTTTGCTCTCCCTCC stands 5.23; under TGAGAGATTAAACATGCTCTGCATACCTGC, -1.25. TTCTTTTTTTTTTTTTTTTTTTTTTGAGAT: the binding signal (log2 normalized intensity) came out at 3.08. The figure for GCAGATGGTTTCATCTGGTTTCTGTTTGAG is 0.986; for CTTTAGCTCCTGGGCCCAGATATACAAGAA it is -0.234; for ATCTTGATTACTATAGGGCAAATGGAAGAA it is -0.196. Under AAGAAAAGCCTTGTGGCAGTGAGAACAGGT stands -1.3.

GTGTTGTGACTACCTGGTTAAAAGGACAAC: the binding signal (log2 normalized intensity) stood at 0.22. Under GTCTGACCAACCTGTCCAAAGGTCATCTGT stands 7.75. The figure for AAGATCTGTGAAAGAAAAGTACTTTAGTGT is 0.992; for TGGCGCCATTTCAGGTCCACCAAGGTGGTG it is 0.73; for AGTGTTAAGGACAACCGGTAGCACAACATA it is -1.24. Under ATCCTTCTTGACCAGGCAAGCTTGACCTTT stands 7.77; under ATAGCCAAGCCAACCAGGAGAATTTCAGTA, 2.47. Consider AACACTATCTTCTTTCAGTGTTGACCTTTG, for which the binding signal (log2 normalized intensity) was found to be 7.46.

Turning to AGAGGGGCCAGGAACGTCACACTGAAAGCT, the binding signal (log2 normalized intensity) was -1.39.

As to ATCCCCCACACCGAGATAGTAGAGATAGTG, the binding signal (log2 normalized intensity) turned out to be 2.5. Under GAGCGCAAATGATCAAAGGTCGGTTTTAGG stands 5.48; under TCACTGACATTCCAGCCACTAAGAAGCCCA, -1.21. Under TCACAAATGGAGTTTGGTTTAAAGTTCAAG stands 2.84; under GTCAGTTGATAAACAGATAACTGGGGGCAA, 1.68; under TGAAGTCCAAAGGCCATCTGCTGGAGAATC, 3.81.
